# From PubChem BioAssay AID485344 (National Center for Advancing Translational Sciences (NCATS), 2010)
# Hit rate of the full screen: of about 340,000 compounds, about 6,900 (2%) were called active. Cut-off read from the data, not from the text of the source: active = inhibition above about 30%; inactive = below that, where a call was filed. The list shows a part of the results, in another mix than the full data. Where no call is shown, the source filed none.
# Biological target: D(2) dopamine receptor (Homo sapiens) (UniProt P14416)
# Experiment: HTS Assay for Allosteric Antagonists of the Human D2 Dopamine Receptor: Primary Screen for Antagonists; note: 0% is about no effect
# Settings: HEK293 TREx D2 cells, calcium flux, dopamine EC80; at 10 µM; stronger effect = higher value
# In short: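 In this primary screen, negative modulation is detected by tracking calcium flux after an EC80 dopamine challenge in inducible HEK293 T-REx D2 cells preexposed to test compound for 180 s.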
# Sequence of UniProt P14416 (P14416 whole entry, looked up): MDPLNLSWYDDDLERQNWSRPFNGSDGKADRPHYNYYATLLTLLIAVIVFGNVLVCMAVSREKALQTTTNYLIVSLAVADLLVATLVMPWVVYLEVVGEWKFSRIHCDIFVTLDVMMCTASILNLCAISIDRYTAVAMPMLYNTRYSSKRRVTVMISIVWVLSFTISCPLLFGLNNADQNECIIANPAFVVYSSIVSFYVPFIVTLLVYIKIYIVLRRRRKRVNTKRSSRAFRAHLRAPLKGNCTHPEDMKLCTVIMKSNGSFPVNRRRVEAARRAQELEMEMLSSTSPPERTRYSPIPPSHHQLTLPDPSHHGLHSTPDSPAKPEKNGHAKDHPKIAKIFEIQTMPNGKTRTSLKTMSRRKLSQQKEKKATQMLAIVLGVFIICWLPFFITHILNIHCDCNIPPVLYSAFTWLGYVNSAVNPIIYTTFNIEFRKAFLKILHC
row,Compound,inhibition
1,CCN(C(=O)c1cccn(Cc2ccccc2C)c1=O)c1ccccc1,-3.12%
2,Cc1ccc(NC(=O)CN2C(=O)CCn3nc(-c4cccn4C)cc32)c(Cl)c1,-5.91%
3,Brc1ccc(CN2CCN(c3ccccn3)CC2)s1,active: 68.8%
4,CCOc1ccc(S(=O)(=O)c2cn(C)c3ccccc3c2=O)cc1,-10.3%
5,Cc1ccc(CNC(=O)Cn2c(=O)ccc3cc(S(=O)(=O)N4CCCC4)ccc32)cc1,-4.18%
6,CC(NC(=O)c1c2c(nc3ccccc13)C(=O)N(C1CCCCC1)C2)c1ccccc1 (configuration not stated),-0.764%
7,Cc1ccc(Cc2cnc(NC(=O)C3Cc4ccc(C)cc4C(=O)O3)s2)cc1 (configuration not stated),3.24%
8,CCc1ccc(NC(=O)CN2CCSc3ccc(S(=O)(=O)N4CCCC4)cc32)cc1,-16.5%
9,COc1ccc(CCNc2nc(-c3ccc(F)cc3)cc(C(F)(F)F)n2)cc1OC,-8.2%
10,COc1ccc(C(CNC(=O)c2cccc([N+](=O)[O-])c2)N2CCOCC2)cc1 (configuration not stated),-1.63%
11,C/C(=N/NC(=O)CN(c1ccccc1)S(=O)(=O)c1ccccc1)c1ccccc1O,active: 52.1%
12,CCC(=O)Nc1ccccc1-c1nc2ccccc2n(C(C)C(=O)Nc2cccc(Cl)c2C)c1=O (configuration not stated),13.6%
13,COc1cc(NC(=O)CNC(=O)Cn2ccc3ccccc3c2=O)cc(OC)c1OC,11.1%
14,CC(C)c1ccc(Nc2ncnc3c2nc2n3CCCC2)cc1,-1.57%
15,COc1ccc(-c2cc(C(=O)NCc3ccc(F)cc3)no2)cc1,-8.62%
16,CC(=O)c1ccc(N2CCN(c3nc4c(S(=O)(=O)c5ccc(C)c(C)c5)nnn4c4ccc(Cl)cc34)CC2)cc1,5.79%
17,Cc1cc(C)cc(-n2ccnc2SCC(=O)Nc2ccc(C)cc2C)c1,-7.12%
18,CCC(=O)N1CCc2cc(Br)cc(S(=O)(=O)CCC(=O)N3CCN(c4ccc(OC)cc4)CC3)c21,15.9%
19,CCC(C(=O)Nc1cc(OC)ccc1OC)n1c(=O)c(C(F)(F)F)nc2ccccc21 (configuration not stated),1.72%
20,O=c1n(Cc2ccc(Cl)cc2)c2ccccc2c2nc(-c3ccccc3)nn12,-14.9%
21,CCc1ccc(NC(=O)Cc2csc(COc3cccc(C)c3)n2)cc1,0.819%
22,Cc1nc2ccc(S(=O)(=O)NC(C(=O)N3CCN(c4ccc(Cl)cc4)CC3)C(C)C)cc2s1 (configuration not stated),8.88%
23,Cc1cc(-c2ccc(C)c(S(=O)(=O)NCCCN3CCCCCC3)c2)on1,active: 33.7%
24,COC(=O)c1ccccc1NC(=O)NCc1ccc2c(c1)OCO2,active: 34.4%
25,CCn1c(=O)cc(SCC(=O)NCCc2cccc(C)c2)c2ccccc21,-2.74%
26,COc1ccc(-c2cc(C(C)=O)c(C)n2CCC(=O)Nc2ccc(C)cc2Cl)cc1,18%
27,COc1cc(C2N=C(N)Nc3nc4ccccc4n32)ccc1OCC(=O)O (configuration not stated),-3.58%
